Measured values as given in the supplement of paper PMC8728848.
Some of the results follow.

Tests used:
Assay in all cases: glycan array binding signal (z-score within array); higher = stronger binding
Settings in all cases: glycan notation: IUPAC condensed, linker removed; mutation: K348A
[1] = molecular target: Neu5Ac(a2-3)Gal(b1-4)[Fuc(a1-3)]GlcNAc
Procedure, shortened: (§1)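 From the Consortium for Functional Glycomics database, 3228 arrays were curated, keeping only those whose protein sequence was available. Binding is given as a within-array Z-score averaged across arrays sharing a protein sequence and across linkers. Negative Z-scores can be read as non-binding.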

[2] = molecular target: Neu5Ac(a2-3)Gal(b1-4)[Fuc(a1-3)]GlcNAc(b1-3)Gal
Procedure, shortened: as §1

[3] = molecular target: Neu5Ac(a2-3)Gal(b1-4)[Fuc(a1-3)]GlcNAc(b1-3)Gal(b1-4)GlcNAc
Procedure, shortened: as §1

[4] = molecular target: Neu5Ac(a2-3)Gal(b1-4)[Fuc(a1-3)]GlcNAc(b1-3)Gal(b1-4)[Fuc(a1-3)]GlcNAc(b1-3)Gal(b1-4)[Fuc(a1-3)]GlcNAc
Procedure, shortened: as §1

[5] = molecular target: Neu5Ac(a2-3)Gal(b1-4)[Fuc(a1-3)]GlcNAc(b1-6)[Gal(b1-3)]GalNAc
Procedure, shortened: as §1

[6] = molecular target: Neu5Ac(a2-3)Gal(b1-4)[Fuc(a1-3)]GlcNAc6S
Procedure, shortened: as §1

[7] = molecular target: Neu5Ac(a2-3)Gal6S(b1-4)GlcNAc
Procedure, shortened: as §1

[8] = molecular target: Neu5Ac(a2-3)Gal6S(b1-4)[Fuc(a1-3)]GlcNAc
Procedure, shortened: as §1

Neu5Ac(a2-3)GalNAc = molecular target: Neu5Ac(a2-3)GalNAc
Procedure, shortened: as §1

[9] = molecular target: Neu5Ac(a2-3)GalNAc(b1-4)GlcNAc
Procedure, shortened: as §1

[10] = molecular target: Neu5Ac(a2-3)[GalNAc(b1-4)]Gal(b1-4)Glc
Procedure, shortened: as §1

[11] = molecular target: Neu5Ac(a2-3)[GalNAc(b1-4)]Gal(b1-4)GlcNAc
Procedure, shortened: as §1

[12] = molecular target: Neu5Ac(a2-3)[Neu5Ac(a2-6)]GalNAc
Procedure, shortened: as §1

Neu5Ac(a2-6)Gal = molecular target: Neu5Ac(a2-6)Gal
Procedure, shortened: as §1

Neu5Ac(a2-6)Gal(b1-4)Glc = molecular target: Neu5Ac(a2-6)Gal(b1-4)Glc
Procedure, shortened: as §1

[13] = molecular target: Neu5Ac(a2-6)Gal(b1-4)GlcNAc
Procedure, shortened: as §1

[14] = molecular target: Neu5Ac(a2-6)Gal(b1-4)GlcNAc(b1-2)Man(a1-3)[Gal(b1-4)GlcNAc(b1-2)Man(a1-6)]Man(b1-4)GlcNAc(b1-4)GlcNAc
Procedure, shortened: as §1

[15] = molecular target: Neu5Ac(a2-6)Gal(b1-4)GlcNAc(b1-2)Man(a1-3)[GlcNAc(b1-2)Man(a1-6)]Man(b1-4)GlcNAc(b1-4)GlcNAc
Procedure, shortened: as §1

[16] = molecular target: Neu5Ac(a2-6)Gal(b1-4)GlcNAc(b1-2)Man(a1-3)[GlcNAc(b1-2)Man(b1-4)GlcNAc(b1-2)Man(a1-6)]Man(b1-4)GlcNAc(b1-4)GlcNAc
Procedure, shortened: as §1

[17] = molecular target: Neu5Ac(a2-6)Gal(b1-4)GlcNAc(b1-2)Man(a1-3)[Neu5Ac(a2-6)Gal(b1-4)GlcNAc(b1-2)Man(a1-6)]Man(b1-4)GlcNAc(b1-4)GlcNAc
Procedure, shortened: as §1

[18] = molecular target: Neu5Ac(a2-6)Gal(b1-4)GlcNAc(b1-2)Man(a1-6)[Gal(b1-4)GlcNAc(b1-2)Man(a1-3)]Man(b1-4)GlcNAc(b1-4)GlcNAc
Procedure, shortened: as §1

[19] = molecular target: Neu5Ac(a2-6)Gal(b1-4)GlcNAc(b1-2)Man(a1-6)[GlcNAc(b1-2)Man(a1-3)]Man(b1-4)GlcNAc(b1-4)GlcNAc
Procedure, shortened: as §1

[20] = molecular target: Neu5Ac(a2-6)Gal(b1-4)GlcNAc(b1-3)Gal(b1-4)GlcNAc
Procedure, shortened: as §1

[21] = molecular target: Neu5Ac(a2-6)Gal(b1-4)GlcNAc(b1-3)Gal(b1-4)[Fuc(a1-3)]GlcNAc(b1-3)Gal(b1-4)[Fuc(a1-3)]GlcNAc
Procedure, shortened: as §1

[22] = molecular target: Neu5Ac(a2-6)Gal(b1-4)GlcNAc6S
Procedure, shortened: as §1

Neu5Ac(a2-6)GalNAc = molecular target: Neu5Ac(a2-6)GalNAc
Procedure, shortened: as §1

[23] = molecular target: Neu5Ac(a2-6)GalNAc(b1-4)GlcNAc
Procedure, shortened: as §1

Neu5Ac(a2-8)Neu5Ac = molecular target: Neu5Ac(a2-8)Neu5Ac
Procedure, shortened: as §1

[24] = molecular target: Neu5Ac(a2-8)Neu5Ac(a2-3)Gal(b1-4)Glc
Procedure, shortened: as §1

[25] = molecular target: Neu5Ac(a2-8)Neu5Ac(a2-3)[GalNAc(b1-4)]Gal(b1-4)Glc
Procedure, shortened: as §1

[26] = molecular target: Neu5Ac(a2-8)Neu5Ac(a2-8)Neu5Ac
Procedure, shortened: as §1

[27] = molecular target: Neu5Ac(a2-8)Neu5Ac(a2-8)Neu5Ac(a2-3)Gal(b1-4)Glc
Procedure, shortened: as §1

[28] = molecular target: Neu5Ac(a2-8)Neu5Ac(a2-8)Neu5Ac(a2-3)[GalNAc(b1-4)]Gal(b1-4)Glc
Procedure, shortened: as §1

[29] = molecular target: Neu5Ac(a2-8)Neu5Ac(a2-8)Neu5Ac(a2-8)Neu5Ac(a2-3)[GalNAc(b1-4)]Gal(b1-4)Glc
Procedure, shortened: as §1

[30] = molecular target: Neu5Ac(b2-6)Gal(b1-4)GlcNAc
Procedure, shortened: as §1

Neu5Ac(b2-6)GalNAc = molecular target: Neu5Ac(b2-6)GalNAc
Procedure, shortened: as §1

[31] = molecular target: Neu5Ac9Ac(a2-6)Gal(b1-4)GlcNAc
Procedure, shortened: as §1

[32] = molecular target: Neu5Gc(a2-3)Gal(b1-3)GlcNAc
Procedure, shortened: as §1

[33] = molecular target: Neu5Gc(a2-3)Gal(b1-3)[Fuc(a1-4)]GlcNAc
Procedure, shortened: as §1

Neu5Gc(a2-3)Gal(b1-4)Glc = molecular target: Neu5Gc(a2-3)Gal(b1-4)Glc
Procedure, shortened: as §1

[34] = molecular target: Neu5Gc(a2-3)Gal(b1-4)GlcNAc
Procedure, shortened: as §1

[35] = molecular target: Neu5Gc(a2-3)Gal(b1-4)[Fuc(a1-3)]GlcNAc
Procedure, shortened: as §1

[36] = molecular target: Neu5Gc(a2-6)Gal(b1-4)GlcNAc
Procedure, shortened: as §1

Neu5Gc(a2-6)GalNAc = molecular target: Neu5Gc(a2-6)GalNAc
Procedure, shortened: as §1

[37] = molecular target: Neu5Gc(b2-6)Gal(b1-4)GlcNAc
Procedure, shortened: as §1

B1: Surfactant Protein D (Human); Neck + Carbohydrate Recognition Domain (NCRD) (Homo sapiens) (protein)
chain: MLLFLLSALVLLTQPLGYLEAEMKTYSHRTMPSACTLVMCSSVESGLPGRDRDGREGPRGEKGDPGLPGAAGQAGMPGQAGPVGPKGDNGSVGEPGPKGDTGPSGPPGPPGVPGPAGREGALGKQGNIGPQGKPGPKGEAGPKGEVGAPGMQGSAGARGLAGPKGERGVPGERGVPGNTGAAGSAGAMGPQGSPGARGPPGLKGDKGIPGDKGAKGESGLPDVASLRQQVEALQGQVQHLQAAFSQYKKVELFPNGQSVGEKIFKTAQFVKPFTEAQLLCTQAGGQLASPRSAAENAALQQLVVAKNEAAFLSMTDSKTEGKFTYPTGESLVYSNWAPGEPNDDGGSEDCVEIFTNGKWNDRACGEARLVVCEF
glycan array binding signal (z-score) [1]: -0.173
glycan array binding signal (z-score) [2]: -0.173
glycan array binding signal (z-score) [3]: -0.037
glycan array binding signal (z-score) [4]: -0.167
glycan array binding signal (z-score) [5]: -0.015
glycan array binding signal (z-score) [6]: -0.162
glycan array binding signal (z-score) [7]: -0.17
glycan array binding signal (z-score) [8]: -0.173
glycan array binding signal (z-score) (Neu5Ac(a2-3)GalNAc): -0.147
glycan array binding signal (z-score) [9]: -0.177
glycan array binding signal (z-score) [10]: -0.176
glycan array binding signal (z-score) [11]: -0.17
glycan array binding signal (z-score) [12]: -0.177
glycan array binding signal (z-score) (Neu5Ac(a2-6)Gal): -0.158
glycan array binding signal (z-score) (Neu5Ac(a2-6)Gal(b1-4)Glc): -0.17
glycan array binding signal (z-score) [13]: -0.162
glycan array binding signal (z-score) [14]: -0.147
glycan array binding signal (z-score) [15]: -0.169
glycan array binding signal (z-score) [16]: -0.173
glycan array binding signal (z-score) [17]: -0.164
glycan array binding signal (z-score) [18]: -0.111
glycan array binding signal (z-score) [19]: -0.173
glycan array binding signal (z-score) [20]: -0.174
glycan array binding signal (z-score) [21]: 0.254
glycan array binding signal (z-score) [22]: -0.175
glycan array binding signal (z-score) (Neu5Ac(a2-6)GalNAc): -0.174
glycan array binding signal (z-score) [23]: -0.172
glycan array binding signal (z-score) (Neu5Ac(a2-8)Neu5Ac): -0.164
glycan array binding signal (z-score) [24]: -0.171
glycan array binding signal (z-score) [25]: -0.141
glycan array binding signal (z-score) [26]: -0.173
glycan array binding signal (z-score) [27]: -0.177
glycan array binding signal (z-score) [28]: -0.161
glycan array binding signal (z-score) [29]: -0.154
glycan array binding signal (z-score) [30]: -0.177
glycan array binding signal (z-score) (Neu5Ac(b2-6)GalNAc): -0.166
glycan array binding signal (z-score) [31]: -0.162
glycan array binding signal (z-score) [32]: -0.174
glycan array binding signal (z-score) [33]: -0.149
glycan array binding signal (z-score) (Neu5Gc(a2-3)Gal(b1-4)Glc): -0.132
glycan array binding signal (z-score) [34]: -0.174
glycan array binding signal (z-score) [35]: -0.165
glycan array binding signal (z-score) [36]: -0.173
glycan array binding signal (z-score) (Neu5Gc(a2-6)GalNAc): -0.168
glycan array binding signal (z-score) [37]: -0.158
